{"source": "PubChem BioAssay (NCI)", "test_in_all_cases": "growth of human tumour cells (NCI), 48 h", "key": {"[1]": {"tested_on": "786-0 renal"}, "[2]": {"tested_on": "A549 NSCLC"}, "[3]": {"tested_on": "BT-549 breast"}, "[4]": {"tested_on": "EKVX NSCLC"}, "[5]": {"tested_on": "HCT-116 colon"}, "[6]": {"tested_on": "HOP-62 NSCLC"}, "[7]": {"tested_on": "KM12 colon"}, "[8]": {"tested_on": "LOX IMVI melanoma"}, "[9]": {"tested_on": "M14 melanoma"}, "[10]": {"tested_on": "NCI-H226 lung"}, "[11]": {"tested_on": "NCI-H460 lung"}, "[12]": {"tested_on": "NCI/ADR-RES ovarian"}, "[13]": {"tested_on": "OVCAR-4 ovarian"}, "[14]": {"tested_on": "OVCAR-5 ovarian"}, "[15]": {"tested_on": "OVCAR-8 ovarian"}, "[16]": {"tested_on": "SF-295 CNS"}, "[17]": {"tested_on": "SK-MEL-5 melanoma"}, "[18]": {"tested_on": "SK-OV-3 ovarian"}, "[19]": {"tested_on": "SN12C renal"}, "[20]": {"tested_on": "SNB-19 CNS"}, "[21]": {"tested_on": "T-47D breast"}, "[22]": {"tested_on": "SNB-75 CNS"}, "[23]": {"tested_on": "CAKI-1 renal"}, "[24]": {"tested_on": "RXF 393 renal"}}, "note": "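In this assay, cells in 96-well plates receive the compound at five concentrations for 48 hours. Endpoints are linearly interpolated between the surrounding concentrations. TGI marks complete inhibition of growth.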 For part of its entries the source gives two or more results. The other results are left out here. An entry can have further records. For some of these results: A record mostly stands for its own series of concentrations, which the source does not state; a value can be the end of its range. For some of these results: The values listed for one entry are repeats across runs, samples, wells, individuals or studies. Records carry a tag for their origin. Letters count within one entry."}
{"smiles": "CC(=O)Nc1cc(/C=C\\C(=O)N2CC(CCl)c3c2cc(N)c2ccccc32)n(C)n1", "note": "(stereo not given)", "values": [{"measurement": "TGI", "setting": "[1]", "value": "4.4 nM and 13.3 µM"}, {"measurement": "TGI", "setting": "[2]", "value": "127 nM and > 100 µM"}, {"measurement": "TGI", "setting": "[3]", "value": "424 nM and 11.4 µM"}, {"measurement": "TGI", "setting": "[4]", "value": "65.6 nM and > 100 µM"}, {"measurement": "TGI", "setting": "[5]", "value": "1.01 µM and > 100 µM"}, {"measurement": "TGI", "setting": "[6]", "value": "22.9 nM and 1.19 µM"}, {"measurement": "TGI", "setting": "[7]", "value": "77.8 nM and 1.3 µM"}, {"measurement": "TGI", "setting": "[8]", "value": "1.84 µM and > 100 µM"}, {"measurement": "TGI", "setting": "[9]", "value": "31.3 nM and 1.06 µM"}, {"measurement": "TGI", "setting": "[10]", "value": "43.9 nM and > 100 µM"}, {"measurement": "TGI", "setting": "[11]", "value": "1.18 µM and > 100 µM"}, {"measurement": "TGI", "setting": "[12]", "value": "548 nM and > 100 µM"}, {"measurement": "TGI", "setting": "[13]", "value": "69.6 nM and > 100 µM"}, {"measurement": "TGI", "setting": "[14]", "value": "70.6 nM and > 100 µM"}, {"measurement": "TGI", "setting": "[15]", "value": "8.71 nM and 15.3 µM"}, {"measurement": "TGI", "setting": "[16]", "value": "55.8 nM and > 100 µM"}, {"measurement": "TGI", "setting": "[17]", "value": "9.45 nM and 11.1 µM"}, {"measurement": "TGI", "setting": "[18]", "value": "66.2 nM and > 100 µM"}, {"measurement": "TGI", "setting": "[19]", "value": "3.21 nM and 175 nM"}, {"measurement": "TGI", "setting": "[20]", "value": "350 nM and 12.7 µM"}, {"measurement": "TGI", "setting": "[21]", "value": "28.9 nM and > 100 µM"}]}
{"smiles": "CC1CCC2c3c([nH]c4ccccc34)C3C(=O)N(c4ccccc4)C(=O)C3C2C1", "note": "(stereo not given)", "values": [{"measurement": "TGI", "setting": "[22]", "value": "6.43 µM and 164 µM"}]}
{"smiles": "Oc1c(I)cc(Cl)c2cccnc12", "values": [{"measurement": "TGI", "setting": "[23]", "value": "77.1 µM [sample A, 1 test] and 7.4 µM [sample B, 1 test]"}, {"measurement": "TGI", "setting": "[24]", "value": "> 100 µM [sample A, 1 test] and 7.49 µM [sample B, 1 test]"}, {"measurement": "TGI", "setting": "[16]", "value": "89.4 µM [sample A, 1 test] and 8.79 µM [sample B, 1 test]"}]}
